From publication PMC6919601, “Identification of Plasmodium dipeptidyl aminopeptidase allosteric inhibitors by high throughput screening” (PLoS ONE, 2019)
In all, about 110,000 compounds went through this assay and about 230 (0.21%) showed an effect of 50% or more. The list shows a part of the results.

target: DPAP1 (Plasmodium falciparum, UniProt Q8IIJ9); assay: primary screen, percent inhibition; read by cleavage of a fluorogenic dipeptide substrate; higher = more effect of the substance; parameters: species or system P. falciparum D10 trophozoite lysates; single well
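Note: 30 min substrate incubation versus DMSO and 10 µM JCP410 controls.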

DPAP1, sequence (Q8IIJ9 whole entry, looked up): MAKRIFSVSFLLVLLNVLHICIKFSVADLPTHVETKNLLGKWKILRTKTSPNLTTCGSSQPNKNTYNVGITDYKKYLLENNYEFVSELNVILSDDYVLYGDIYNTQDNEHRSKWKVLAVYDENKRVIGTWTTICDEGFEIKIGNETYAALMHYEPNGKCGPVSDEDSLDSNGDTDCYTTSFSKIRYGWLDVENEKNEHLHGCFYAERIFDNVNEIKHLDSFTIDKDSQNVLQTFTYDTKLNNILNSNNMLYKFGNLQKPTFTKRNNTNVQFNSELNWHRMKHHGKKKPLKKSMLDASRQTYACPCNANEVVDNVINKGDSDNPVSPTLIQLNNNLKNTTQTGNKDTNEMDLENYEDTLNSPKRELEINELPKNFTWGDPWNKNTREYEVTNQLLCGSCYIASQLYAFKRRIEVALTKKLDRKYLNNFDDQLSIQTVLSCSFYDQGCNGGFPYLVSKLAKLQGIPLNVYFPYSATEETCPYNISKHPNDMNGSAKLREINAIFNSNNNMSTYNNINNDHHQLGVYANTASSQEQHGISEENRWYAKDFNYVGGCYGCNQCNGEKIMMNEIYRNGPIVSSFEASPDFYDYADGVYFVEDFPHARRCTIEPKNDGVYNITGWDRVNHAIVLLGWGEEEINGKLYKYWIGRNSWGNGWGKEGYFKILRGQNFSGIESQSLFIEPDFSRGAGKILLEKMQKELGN

Compound	% Inhibition @ 10 uM
CCCSc1nc2c(c(=O)[nH]c(=O)n2C)n1CC(O)COc1ccccc1C (centres unmarked)	3.65%
NC(=O)c1ccccc1Nc1ccc(Cl)cc1	4.83%
O=c1sc2ccccc2n1/C=C/c1ccccc1	1.83%
c1ccc2c(c1)OCC(c1csc3ncnc(N4CCCCC4)c13)O2 (centres unmarked)	-1.52%
COc1ccc(C(c2c(C)n(C)n(-c3ccccc3)c2=O)c2c(C)n(C)n(-c3ccccc3)c2=O)cc1	-1.25%
CCOc1cc(C2C3=C(O)CCCC3=NC3=C2C(=O)CCC3)ccc1OC (centres unmarked)	0.317%
CN(Cc1ccccc1)C(=O)CN1Cc2ccccc2C1=O	3.62%
COc1cc(CNC(C)(C)CO)cc(Br)c1OCC(N)=O	-2.74%
CC1CCCC(NC(=O)Nc2noc3c2COc2ccccc2-3)C1C (centres unmarked)	-3.17%
CC1=Nc2ncnn2C(c2cccnc2)/C1=C(\O)OC1CCCCC1 (centres unmarked)	1.68%
Cc1nc(CC(=O)Nc2nc(C)c(C)s2)cs1	-4.54%
CCOC(=O)C1=C(C)OC(N)=C(C#N)C12C(=O)Nc1ccccc12 (centres unmarked)	-1.97%
CCc1ccc(OCC(=O)O/N=C(\N)c2ccccn2)c(Br)c1	-4.84%
NC1=NC(=O)/C(=C/c2cn(Cc3ccccc3F)c3ccccc23)S1	2.8%
N#Cc1ccccc1NC(=O)c1cccc(F)c1	-1.32%
O=C(O)c1ccc(-c2ccc(C(=O)O)s2)s1	5.42%
Cc1ccc(S(=O)(=O)N(CC(=O)NCc2ccco2)c2ccc(C)c(Cl)c2)cc1	-2.75%
Cn1c(=O)c2c(nc(SCCCC#N)n2Cc2ccccc2F)n(C)c1=O	4.67%
COc1ccc(C(=O)Nc2cccc(SC)c2)cc1	4.75%
CC1(C)CC(O)=C/C(=N/CC2NCCc3ccccc32)C1 (centres unmarked)	-0.736%
N#Cc1c(NC(=O)c2cccc(F)c2)sc2c1CCCC2	3.65%
COC(=O)c1c(NC2=NS(=O)(=O)c3ccccc32)sc2c1CCC(C(C)(C)C)C2 (centres unmarked)	-1.11%
CCCCCn1c(=O)c(C(=O)Nc2ccccc2)c(O)c2ccccc21	-4.67%
CCN(CC)C(=O)Cn1cc(SCC(=O)NCc2ccco2)c2ccccc21	-5.54%
Cn1c(=O)c2c(nc(CN3CCN(Cc4ccccc4)CC3)n2CCc2ccccc2)n(C)c1=O	-1.43%

Compound	% Inhibition @ 10 uM
Cc1ccc(Oc2cccc(NC(=O)c3ccc([N+](=O)[O-])cc3C(=O)O)c2)cc1C	-12.9%
CC(C)CNC(=O)c1cc2n(n1)C(C(F)(F)F)CC(c1ccc3c(c1)OCO3)N2 (centres unmarked)	2.43%
Cc1cc(C(=O)C(=O)Nc2nncs2)c(C)n1-c1ccc(F)cc1	2.32%
Cc1ccc(N2CCN(c3ccc(NC(=O)C4CC=CCC4C(=O)O)cc3)CC2)cc1 (centres unmarked)	-1.61%
CC1CCCC(NC(=O)c2ccc(-n3cnc4cccnc43)cc2)C1C (centres unmarked)	-0.943%
COC(=O)c1cc(OC)c(OC)cc1NC(=O)c1ccc(Cl)cc1	1.54%
CSc1[nH]nc(N)c1S(=O)(=O)c1ccc(Cl)cc1	-3.62%
Cc1ccc(S(=O)(=O)N2CC3(C)CN(S(=O)(=O)c4ccc(C)cc4)CC(C)(C2)C3=O)cc1	20.5%
Cc1c(CNCC(C)c2ccccc2)c(C(=O)O)c(C)n1Cc1ccccc1 (centres unmarked)	-0.439%
CN1CCN(CC(=O)N2N=C(c3ccc(Br)cc3)CC2c2nc3ccccc3[nH]2)CC1 (centres unmarked)	-3.93%
CCOC(=O)c1c(NC(=O)Nc2nnc(N(CC(C)C)CC(C)C)s2)sc2c1CCCC2	-2.85%
O=C(Nc1ccc(Cl)cn1)c1sc2ccccc2c1Cl	4.66%
Cc1cccc(-c2noc(CN(C(=O)c3ccccc3)C(C)C)n2)c1	-0.0593%
N#CCc1nnc2n1CCCCC2	19.4%
CCC(C)NC(=O)c1ccccc1NC(=O)CN(c1cccc(F)c1)S(C)(=O)=O (centres unmarked)	-1.46%
COCCNC(=O)CSc1nc(N)c2c3c(sc2n1)CCCC3	3.13%
C/C(=N\CCc1c(C)[nH]c2ccc(C)cc12)C1=C(O)CC(c2ccccc2)CC1=O (centres unmarked)	-2.5%
O=C(O)c1ccc2c(c1)C(=O)N(c1cccc(C(F)(F)F)c1)C2=O	2.17%
C#CCn1c(COc2cccc(OC)c2)nc2ccccc21	-5.92%
Cc1ccc(C2SCC(=O)Nc3c2c(O)nn3C2CCOC(C)(C)C2)cc1 (centres unmarked)	-8.11%
O=C(C(c1ccccc1)c1ccccc1)N1CCN(C/C=C/c2ccccc2)CC1	-0.261%
CC(C)C[C@H](CS(=O)(=O)N[C@@H](CCc1ccccc1)C(=O)C[N+](=O)[O-])NC(=O)OCc1ccccc1	13.8%
CC(C)(C)c1ccc(OCCOc2ccccc2C=C2C(=O)NC(=O)NC2=O)cc1	-0.142%
COCCNC(=O)Cn1nc(C)c2c(C)n(-c3ccccc3)nc2c1=O	0.756%
CC1CCCC(NC(=O)C2CCN(S(=O)(=O)N3CCCCCC3)CC2)C1C (centres unmarked)	-2.26%
